The supplement of paper PMC9542798

Legend:
Test in all cases: minimum inhibitory concentration
Chloramphenicol = compound: O=C(N[C@H](CO)[C@H](O)c1ccc([N+](=O)[O-])cc1)C(Cl)Cl [Chloramphenicol]
Protocol: (§1)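 Broth microdilution MIC per ISO 10932 on precoated VetMIC Lact-1 plates (tylosin, vancomycin and ampicillin plates prepared manually) against lactic acid bacteria and bifidobacteria isolates. Plates were read visually after 48 h anaerobic incubation (bifidobacteria 72 h; enterococci and staphylococci 24 h aerobic) at species-specific temperatures of 30 or 37 °C. Values prefixed with < or > are outside the tested dilution range.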

Kanamycin = compound: NC[C@H]1O[C@H](O[C@H]2[C@H](O)[C@@H](O[C@H]3O[C@H](CO)[C@@H](O)[C@H](N)[C@H]3O)[C@H](N)C[C@@H]2N)[C@H](O)[C@@H](O)[C@@H]1O [Kanamycin]
Protocol: as §1

Tetracycline = compound: CN(C)[C@@H]1C(O)=C(C(N)=O)C(=O)[C@@]2(O)C(O)=C3C(=O)c4c(O)cccc4[C@@](C)(O)[C@H]3C[C@@H]12 [Tetracycline]
Protocol: as §1

Erythromycin = compound: CC[C@H]1OC(=O)[C@H](C)[C@@H](O[C@H]2C[C@@](C)(OC)[C@@H](O)[C@H](C)O2)[C@H](C)[C@@H](O[C@@H]2O[C@H](C)C[C@H](N(C)C)[C@H]2O)[C@](C)(O)C[C@@H](C)C(=O)[C@H](C)[C@@H](O)[C@]1(C)O [Erythromycin]
Protocol: as §1

Ampicillin = compound: CC1(C)S[C@@H]2[C@H](NC(=O)[C@H](N)c3ccccc3)C(=O)N2[C@H]1C(=O)O [Ampicillin]
Protocol: as §1

Vancomycin = compound: CN[C@H](CC(C)C)C(=O)N[C@H]1C(=O)N[C@@H](CC(N)=O)C(=O)N[C@H]2C(=O)N[C@H]3C(=O)N[C@H](C(=O)N[C@H](C(=O)O)c4cc(O)cc(O)c4-c4cc3ccc4O)[C@H](O)c3ccc(c(Cl)c3)Oc3cc2cc(c3O[C@@H]2O[C@H](CO)[C@@H](O)[C@H](O)[C@H]2O[C@H]2C[C@](C)(N)[C@H](O)[C@H](C)O2)Oc2ccc(cc2Cl)[C@H]1O [Vancomycin]
Protocol: as §1

Clindamycin = compound: CCC[C@@H]1C[C@@H](C(=O)N[C@@H]([C@H]2O[C@H](SC)[C@H](O)[C@@H](O)[C@H]2O)[C@H](C)Cl)N(C)C1 [Clindamycin]
Protocol: as §1

Gentamicin = compound: CNC(C)C1CCC(N)C(OC2C(N)CC(N)C(OC3OCC(C)(O)C(NC)C3O)C2O)O1 [Gentamicin]
Protocol: as §1

Streptomycin = compound: CN[C@@H]1[C@H](O[C@H]2[C@H](O[C@H]3[C@H](O)[C@@H](O)[C@H](N=C(N)N)[C@@H](O)[C@@H]3N=C(N)N)O[C@@H](C)[C@]2(O)C=O)O[C@@H](CO)[C@H](O)[C@H]1O [Streptomycin]
Protocol: as §1

Neomycin = compound: NC[C@@H]1O[C@H](O[C@H]2[C@@H](O)[C@H](O[C@@H]3[C@@H](O)[C@H](N)C[C@H](N)[C@H]3O[C@H]3O[C@H](CN)[C@@H](O)[C@H](O)[C@H]3N)O[C@@H]2CO)[C@H](N)[C@@H](O)[C@@H]1O [Neomycin]
Protocol: as §1
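Further: isolates derived from commercial starter, protective, probiotic or feed-additive cultures, from fermented products, from human gut mucosa or feces, and from human milk or colostrum.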

Test System	minimum inhibitory concentration (Chloramphenicol)	minimum inhibitory concentration (Kanamycin)	minimum inhibitory concentration (Tetracycline)	minimum inhibitory concentration (Erythromycin)	minimum inhibitory concentration (Ampicillin)	minimum inhibitory concentration (Vancomycin)	minimum inhibitory concentration (Clindamycin)	minimum inhibitory concentration (Gentamicin)	minimum inhibitory concentration (Streptomycin)	minimum inhibitory concentration (Neomycin)
Lactococcus lactis IM1324 (strain group: non-starter strains)	8 µg/mL	16 µg/mL	32 µg/mL	1 µg/mL	1 µg/mL	0.5 µg/mL	0.5 µg/mL	4 µg/mL	> 256 µg/mL	16 µg/mL
Lactococcus lactis IM1328 (strain group: non-starter strains)	4 µg/mL	8 µg/mL	0.5 µg/mL	1 µg/mL	1 µg/mL	0.5 µg/mL	0.5 µg/mL	2 µg/mL	32 µg/mL	4 µg/mL
Lactococcus lactis IM1330 (strain group: non-starter strains)	4 µg/mL	8 µg/mL	0.5 µg/mL	1 µg/mL	0.5 µg/mL	0.5 µg/mL	0.5 µg/mL	2 µg/mL	32 µg/mL	16 µg/mL
Lactococcus lactis IM1343 (strain group: non-starter strains)	4 µg/mL	16 µg/mL	0.25 µg/mL	1 µg/mL	0.5 µg/mL	< 0.25 µg/mL	0.5 µg/mL	8 µg/mL	64 µg/mL	16 µg/mL
Lactococcus lactis IM1347 (strain group: non-starter strains)	8 µg/mL	8 µg/mL	0.25 µg/mL	1 µg/mL	0.5 µg/mL	< 0.25 µg/mL	0.25 µg/mL	2 µg/mL	32 µg/mL	2 µg/mL
Lactococcus lactis IM1370 (strain group: starter cultures)	2 µg/mL	< 2 µg/mL	0.25 µg/mL	0.5 µg/mL	0.25 µg/mL	< 0.25 µg/mL	0.5 µg/mL	< 0.5 µg/mL	4 µg/mL	< 0.5 µg/mL
Lactococcus lactis IM1371 (strain group: starter cultures)	4 µg/mL	16 µg/mL	0.5 µg/mL	0.25 µg/mL	0.5 µg/mL	0.5 µg/mL	0.5 µg/mL	2 µg/mL	32 µg/mL	16 µg/mL
Lactococcus lactis IM1372 (strain group: starter cultures)	4 µg/mL	4 µg/mL	0.25 µg/mL	0.25 µg/mL	0.5 µg/mL	< 0.25 µg/mL	0.5 µg/mL	1 µg/mL	8 µg/mL	8 µg/mL
Lactococcus lactis IM1375 (strain group: starter cultures)	2 µg/mL	8 µg/mL	0.25 µg/mL	0.5 µg/mL	0.25 µg/mL	< 0.25 µg/mL	0.25 µg/mL	2 µg/mL	16 µg/mL	8 µg/mL
Lactococcus lactis IM1379 (strain group: starter cultures)	4 µg/mL	8 µg/mL	0.25 µg/mL	1 µg/mL	0.5 µg/mL	< 0.25 µg/mL	0.5 µg/mL	1 µg/mL	32 µg/mL	2 µg/mL
Lactococcus lactis IM1381 (strain group: probiotic strains)	4 µg/mL	4 µg/mL	0.25 µg/mL	0.25 µg/mL	0.25 µg/mL	0.5 µg/mL	0.12 µg/mL	< 0.5 µg/mL	8 µg/mL	1 µg/mL
Lactococcus lactis IM1428 (strain group: starter cultures)	4 µg/mL	4 µg/mL	0.25 µg/mL	0.25 µg/mL	0.5 µg/mL	< 0.25 µg/mL	0.25 µg/mL	1 µg/mL	16 µg/mL	4 µg/mL
Lactococcus lactis IM1463 (strain group: protective cultures)	2 µg/mL	< 2 µg/mL	0.25 µg/mL	0.25 µg/mL	0.5 µg/mL	< 0.25 µg/mL	0.12 µg/mL	< 0.5 µg/mL	8 µg/mL	1 µg/mL
Lactococcus lactis IM1466 (strain group: starter cultures)	4 µg/mL	16 µg/mL	0.5 µg/mL	0.25 µg/mL	1 µg/mL	0.5 µg/mL	0.12 µg/mL	4 µg/mL	64 µg/mL	8 µg/mL
Lactococcus lactis IM1467 (strain group: starter cultures)	4 µg/mL	32 µg/mL	2 µg/mL	0.25 µg/mL	0.5 µg/mL	0.5 µg/mL	0.12 µg/mL	1 µg/mL	16 µg/mL	16 µg/mL
Lactococcus lactis subsp. cremoris IM241 (strain group: starter cultures)	4 µg/mL	256 µg/mL	1 µg/mL	8 µg/mL	1 µg/mL	1 µg/mL	> 16 µg/mL	64 µg/mL	256 µg/mL	> 256 µg/mL
Lactococcus lactis subsp. cremoris IM1449 (strain group: starter cultures)	2 µg/mL	< 2 µg/mL	0.25 µg/mL	0.12 µg/mL	0.5 µg/mL	< 0.25 µg/mL	0.12 µg/mL	< 0.5 µg/mL	2 µg/mL	< 0.5 µg/mL

Test System	minimum inhibitory concentration (Chloramphenicol)	minimum inhibitory concentration (Kanamycin)	minimum inhibitory concentration (Tetracycline)	minimum inhibitory concentration (Erythromycin)	minimum inhibitory concentration (Ampicillin)	minimum inhibitory concentration (Vancomycin)	minimum inhibitory concentration (Clindamycin)	minimum inhibitory concentration (Gentamicin)	minimum inhibitory concentration (Streptomycin)	minimum inhibitory concentration (Neomycin)
Latilactobacillus sakei IM1452 (strain group: starter cultures)	4 µg/mL	32 µg/mL	2 µg/mL	0.5 µg/mL	8 µg/mL	64 µg/mL	2 µg/mL	16 µg/mL	64 µg/mL	16 µg/mL
Leuconostoc pseudomesenteroides IM1436 (strain group: starter cultures)	4 µg/mL	16 µg/mL	1 µg/mL	0.12 µg/mL	0.25 µg/mL	> 128 µg/mL	< 0.03 µg/mL	< 0.5 µg/mL	8 µg/mL	1 µg/mL
Levilactobacillus brevis IM1361 (strain group: non-starter strains)	8 µg/mL	16 µg/mL	32 µg/mL	0.5 µg/mL	4 µg/mL	> 128 µg/mL	16 µg/mL	< 0.5 µg/mL	8 µg/mL	1 µg/mL
Levilactobacillus brevis IM1471 (strain group: starter cultures)	8 µg/mL	64 µg/mL	32 µg/mL	0.5 µg/mL	8 µg/mL	> 128 µg/mL	16 µg/mL	1 µg/mL	16 µg/mL	2 µg/mL
Ligilactobacillus salivarius IM845 (strain group: human milk or colostrum)	2 µg/mL	128 µg/mL	1 µg/mL	0.25 µg/mL	2 µg/mL	> 128 µg/mL	0.12 µg/mL	4 µg/mL	32 µg/mL	4 µg/mL
Limosilactobacillus fermentum IM687 (strain group: human intestinal mucosa or faeces)	8 µg/mL	128 µg/mL	32 µg/mL	1 µg/mL	1 µg/mL	> 128 µg/mL	0.25 µg/mL	4 µg/mL	64 µg/mL	4 µg/mL
Limosilactobacillus fermentum IM815 (strain group: human milk or colostrum)	8 µg/mL	64 µg/mL	8 µg/mL	0.25 µg/mL	0.5 µg/mL	> 128 µg/mL	0.06 µg/mL	2 µg/mL	32 µg/mL	2 µg/mL
Limosilactobacillus fermentum IM848 (strain group: human milk or colostrum)	8 µg/mL	64 µg/mL	4 µg/mL	0.25 µg/mL	1 µg/mL	> 128 µg/mL	0.06 µg/mL	4 µg/mL	32 µg/mL	4 µg/mL
Limosilactobacillus reuteri IM565 (strain group: probiotic strains)	8 µg/mL	128 µg/mL	> 64 µg/mL	1 µg/mL	> 16 µg/mL	> 8 µg/mL	0.25 µg/mL	4 µg/mL	32 µg/mL	4 µg/mL
Schleiferilactobacillus harbinensis IM1358 (strain group: non-starter strains)	4 µg/mL	16 µg/mL	0.5 µg/mL	0.5 µg/mL	2 µg/mL	> 128 µg/mL	0.5 µg/mL	2 µg/mL	1 µg/mL	4 µg/mL
Staphylococcus epidermidis IM1435 (strain group: starter cultures)	16 µg/mL	32 µg/mL	2 µg/mL	> 8 µg/mL	0.25 µg/mL	2 µg/mL	> 16 µg/mL	2 µg/mL	256 µg/mL	8 µg/mL
Streptococcus salivarius IM1353 (strain group: non-starter strains)	2 µg/mL	< 2 µg/mL	0.5 µg/mL	0.25 µg/mL	0.125 µg/mL	< 0.25 µg/mL	0.12 µg/mL	< 0.5 µg/mL	2 µg/mL	1 µg/mL
Streptococcus thermophilus IM1351 (strain group: non-starter strains)	2 µg/mL	32 µg/mL	1 µg/mL	0.5 µg/mL	0.25 µg/mL	< 0.25 µg/mL	0.06 µg/mL	2 µg/mL	16 µg/mL	8 µg/mL
Streptococcus thermophilus IM1368 (strain group: starter cultures)	2 µg/mL	64 µg/mL	0.25 µg/mL	0.5 µg/mL	0.063 µg/mL	< 0.25 µg/mL	0.06 µg/mL	4 µg/mL	32 µg/mL	8 µg/mL
Streptococcus thermophilus IM1369 (strain group: starter cultures)	2 µg/mL	64 µg/mL	1 µg/mL	0.5 µg/mL	< 0.032 µg/mL	0.5 µg/mL	0.12 µg/mL	8 µg/mL	16 µg/mL	8 µg/mL
Streptococcus thermophilus IM1377 (strain group: starter cultures)	4 µg/mL	16 µg/mL	1 µg/mL	0.5 µg/mL	< 0.032 µg/mL	< 0.25 µg/mL	0.12 µg/mL	2 µg/mL	16 µg/mL	4 µg/mL
Streptococcus thermophilus IM1413 (strain group: starter cultures)	2 µg/mL	4 µg/mL	0.5 µg/mL	0.06 µg/mL	0.063 µg/mL	< 0.25 µg/mL	0.06 µg/mL	< 0.5 µg/mL	4 µg/mL	2 µg/mL
